{"source": "paper PMC5892938", "note": "This is one part of the list. At the low end of the ranking the order means little."}
{"biological_target": "GST-SBP-SLBP (stem-loop binding protein) (UniProt Q14493)", "experiment": "targeted RNA Bind-n-Seq;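 also: DESeq read counts versus GST-SBP nonspecific binding control pulldown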", "settings": "RBNS binding buffer: 25 mM Tris pH 7.5, 150 mM KCl, 3 mM MgCl2, 0.1% Tween, 0.5 mg/mL BSA, 1 mM DTT; 27 nM protein, 750 pM RNA pool; temperature not stated; high values mean tight binding"}
{"sequence": "GGUCACGUCUCAAUCAACUCUAUUUCCAGGGAAAGCCCUGGUAUACUCAACAGCUCGCAGUCAAG", "binding signal (log2 fold change)": 0.091}
{"sequence": "GGUCACGUCUCAAUCAACUCAUUUUCCAGGGAAAGCCCUGGUUUUUUCAACAGCUCGCAGUCAAG", "binding signal (log2 fold change)": 0.0173}
{"sequence": "GGUCACGUCUCAAUCAACUCUACUCCAGGAGUUUACUCCUGCAUACUCAACAGCUCGCAGUCAAG", "binding signal (log2 fold change)": -0.0679}
{"sequence": "GGUCACGUCUCAAUCAACUCUUUCCCAGGAGUUUACUCCUGCAUAUUCAACAGCUCGCAGUCAAG", "binding signal (log2 fold change)": 0.213}
{"sequence": "GGUCACGUCUCAAUCAACUCAUCGCCAGGAGUUUCCUCCUGCUUAUUCAACAGCUCGCAGUCAAG", "binding signal (log2 fold change)": 0.0374}
{"sequence": "GGUCACGUCUCAAUCAACUCUUCCUCCAGGGAAAACCCUGGCUUAUUCAACAGCUCGCAGUCAAG", "binding signal (log2 fold change)": -0.046}
{"sequence": "GGUCACGUCUCAAUCAACUCUUCCCCCAGGGAAACCCCUGGUUAUUUCAACAGCUCGCAGUCAAG", "binding signal (log2 fold change)": -0.103}
{"sequence": "GGUCACGUCUCAAUCAACUCUACUUCAGGAGUUUACUCCUGCUUAUUCAACAGCUCGCAGUCAAG", "binding signal (log2 fold change)": 0.126}
{"sequence": "GGUCACGUCUCAAUCAACUCUAUGGAGGGGGGGAAAACCCCUUUACCCUCAUCCUCAACAGCUCGCAGUCAAG", "binding signal (log2 fold change)": -0.0435}
{"sequence": "GGUCACGUCUCAAUCAACUCUACUUCCAGGGAAAGCCCUGGUUAUUUCAACAGCUCGCAGUCAAG", "binding signal (log2 fold change)": 0.0781}
{"sequence": "GGUCACGUCUCAAUCAACUCAACUUCCAGGGAAAACCCUGGUUAACUCAACAGCUCGCAGUCAAG", "binding signal (log2 fold change)": -0.0386}
{"sequence": "GGUCACGUCUCAAUCAACUCUUUCCCAGGAGUUUCCUCCUGUAUACUCAACAGCUCGCAGUCAAG", "binding signal (log2 fold change)": 0.0742}
{"sequence": "GGUCACGUCUCAAUCAACUCAUCAGAGGGGGGGAAAACCCCUUUACCCUCCAAUUCAACAGCUCGCAGUCAAG", "binding signal (log2 fold change)": 0.162}
{"sequence": "GGUCACGUCUCAAUCAACUCAUCGUCAGGAGUUUUCUCCUGUAUACUCAACAGCUCGCAGUCAAG", "binding signal (log2 fold change)": 0.1}
{"sequence": "GGUCACGUCUCAAUCAACUCUUCCUCAGGAGUUUCCUCCUGCAAUCUCAACAGCUCGCAGUCAAG", "binding signal (log2 fold change)": 0.076}
{"sequence": "GGUCACGUCUCAAUCAACUCAAUUUCCAGGGAAACCCCUGGUAUUUUCAACAGCUCGCAGUCAAG", "binding signal (log2 fold change)": 0.0325}
{"sequence": "GGUCACGUCUCAAUCAACUCUUUUUCCAGGGAAAACCCUGGCUUAUUCAACAGCUCGCAGUCAAG", "binding signal (log2 fold change)": -0.118}
{"sequence": "GGUCACGUCUCAAUCAACUCUAACGAGGGGGGGAAAACCCCUUUACCCUCUAUAUCAACAGCUCGCAGUCAAG", "binding signal (log2 fold change)": 0.308}
{"sequence": "GGUCACGUCUCAAUCAACUCAACUUCAGGAGUUUGCUCCUGCAAUCUCAACAGCUCGCAGUCAAG", "binding signal (log2 fold change)": 0.0527}
{"sequence": "GGUCACGUCUCAAUCAACUCAAUCCCAGGAGUUUGCUCCUGUAAAUUCAACAGCUCGCAGUCAAG", "binding signal (log2 fold change)": 0.15}
{"sequence": "GGUCACGUCUCAAUCAACUCAUCCCCCAGGGAAAGCCCUGGCUAUUUCAACAGCUCGCAGUCAAG", "binding signal (log2 fold change)": 0.248}
{"sequence": "GGUCACGUCUCAAUCAACUCAUUCUCAGGAGUUUUCUCCUGCUAAGUCAACAGCUCGCAGUCAAG", "binding signal (log2 fold change)": 0.13}
{"sequence": "GGUCACGUCUCAAUCAACUCUUCUUCAGGAGUUUUCUCCUGCAAUGUCAACAGCUCGCAGUCAAG", "binding signal (log2 fold change)": -0.0451}
{"sequence": "GGUCACGUCUCAAUCAACUCAUUCCCAGGAGUUUACUCCUGUAUAUUCAACAGCUCGCAGUCAAG", "binding signal (log2 fold change)": 0.0758}
{"sequence": "GGUCACGUCUCAAUCAACUCAUCUCCAGGAGUUUGCUCCUGUAAAUUCAACAGCUCGCAGUCAAG", "binding signal (log2 fold change)": -0.0701}
{"sequence": "GGUCACGUCUCAAUCAACUCAUCGUCCAGGGAAAACCCUGGUAAUCUCAACAGCUCGCAGUCAAG", "binding signal (log2 fold change)": 0.172}
{"sequence": "GGUCACGUCUCAAUCAACUCAACUCCAGGAGUUUCCUCCUGUUUAUUCAACAGCUCGCAGUCAAG", "binding signal (log2 fold change)": -0.00726}
{"sequence": "GGUCACGUCUCAAUCAACUCACACGAGGGGGGGAAAACCCCUUUACCCUCAUUCUCAACAGCUCGCAGUCAAG", "binding signal (log2 fold change)": "-5.34e-05"}
{"sequence": "GGUCACGUCUCAAUCAACUCAUACGAGGGGGGGAAAACCCCUUUACCCUCAUUCUCAACAGCUCGCAGUCAAG", "binding signal (log2 fold change)": -0.128}
{"sequence": "GGUCACGUCUCAAUCAACUCAAGUCCAGGAGUUUCCUCCUGCUAAUUCAACAGCUCGCAGUCAAG", "binding signal (log2 fold change)": -0.089}
{"sequence": "GGUCACGUCUCAAUCAACUCUUCGCCAGGAGUUUUCUCCUGCUUUUUCAACAGCUCGCAGUCAAG", "binding signal (log2 fold change)": -0.0267}
{"sequence": "GGUCACGUCUCAAUCAACUCUUUUCCAGGAGUUUUCUCCUGCUUUCUCAACAGCUCGCAGUCAAG", "binding signal (log2 fold change)": -0.018}
{"sequence": "GGUCACGUCUCAAUCAACUCAAUCCCCAGGGAAACCCCUGGCUUAUUCAACAGCUCGCAGUCAAG", "binding signal (log2 fold change)": 0.24}
{"sequence": "GGUCACGUCUCAAUCAACUCUUCGGAGGGGGGGAAAACCCCUUUACCCUCAACCUCAACAGCUCGCAGUCAAG", "binding signal (log2 fold change)": 0.265}
{"sequence": "GGUCACGUCUCAAUCAACUCAAUCCCAGGAGUUUGCUCCUGUAUUCUCAACAGCUCGCAGUCAAG", "binding signal (log2 fold change)": 0.268}
{"sequence": "GGUCACGUCUCAAUCAACUCAUUUCCAGGAGUUUCCUCCUGUUUUCUCAACAGCUCGCAGUCAAG", "binding signal (log2 fold change)": 0.12}
{"sequence": "GGUCACGUCUCAAUCAACUCAAUUCCCAGGGAAACCCCUGGCAUUCUCAACAGCUCGCAGUCAAG", "binding signal (log2 fold change)": 0.24}
{"sequence": "GGUCACGUCUCAAUCAACUCAUCCCCCAGGGAAACCCCUGGCAUAUUCAACAGCUCGCAGUCAAG", "binding signal (log2 fold change)": -0.0631}
{"sequence": "GGUCACGUCUCAAUCAACUCUAUUUCCAGGGAAAGCCCUGGUAUAUUCAACAGCUCGCAGUCAAG", "binding signal (log2 fold change)": -0.0286}
{"sequence": "GGUCACGUCUCAAUCAACUCAUUAGAGGGGGGGAAAACCCCUUUGCCCUCAAAAUCAACAGCUCGCAGUCAAG", "binding signal (log2 fold change)": 0.487}
{"sequence": "GGUCACGUCUCAAUCAACUCUAUUCCCAGGGAAAGCCCUGGUUAACUCAACAGCUCGCAGUCAAG", "binding signal (log2 fold change)": -0.202}
{"sequence": "GGUCACGUCUCAAUCAACUCAUCUUCCAGGGAAAACCCUGGCAAACUCAACAGCUCGCAGUCAAG", "binding signal (log2 fold change)": -0.00365}
{"sequence": "GGUCACGUCUCAAUCAACUCGUCUUCAGGAGUUUCCUCCUGCUAUUUCAACAGCUCGCAGUCAAG", "binding signal (log2 fold change)": 0.00339}
{"sequence": "GGUCACGUCUCAAUCAACUCUAUCCCCAGGGAAAUCCCUGGUUUUCUCAACAGCUCGCAGUCAAG", "binding signal (log2 fold change)": -0.141}
{"sequence": "GGUCACGUCUCAAUCAACUCUUCAGAGGGGGGGAAAACCCCUUUGCCCUCAUCAUCAACAGCUCGCAGUCAAG", "binding signal (log2 fold change)": 0.0336}
{"sequence": "GGUCACGUCUCAAUCAACUCUAUCCCCAGGGAAAGCCCUGGCUUUCUCAACAGCUCGCAGUCAAG", "binding signal (log2 fold change)": 0.0525}
{"sequence": "GGUCACGUCUCAAUCAACUCAACUCCCAGGGAAAGCCCUGGUUAAUUCAACAGCUCGCAGUCAAG", "binding signal (log2 fold change)": 0.118}
{"sequence": "GGUCACGUCUCAAUCAACUCUAUUCCCAGGGAAAGCCCUGGCAUUCUCAACAGCUCGCAGUCAAG", "binding signal (log2 fold change)": 0.221}
